Measurements reported in article PMC4336329 (PLoS ONE, 2015).
Hit rate of the full screen: of about 310,000 compounds, about 2,200 (0.71%) showed an effect of 50% or more. Effects have a minus sign here. The list shows a part of the results.

target: human ether-à-go-go-related gene (hERG) potassium channel (human, UniProt Q12809); assay: primary screen, population patch clamp on CHO cells stably expressing hERG
Sequence (Q12809 whole entry, looked up): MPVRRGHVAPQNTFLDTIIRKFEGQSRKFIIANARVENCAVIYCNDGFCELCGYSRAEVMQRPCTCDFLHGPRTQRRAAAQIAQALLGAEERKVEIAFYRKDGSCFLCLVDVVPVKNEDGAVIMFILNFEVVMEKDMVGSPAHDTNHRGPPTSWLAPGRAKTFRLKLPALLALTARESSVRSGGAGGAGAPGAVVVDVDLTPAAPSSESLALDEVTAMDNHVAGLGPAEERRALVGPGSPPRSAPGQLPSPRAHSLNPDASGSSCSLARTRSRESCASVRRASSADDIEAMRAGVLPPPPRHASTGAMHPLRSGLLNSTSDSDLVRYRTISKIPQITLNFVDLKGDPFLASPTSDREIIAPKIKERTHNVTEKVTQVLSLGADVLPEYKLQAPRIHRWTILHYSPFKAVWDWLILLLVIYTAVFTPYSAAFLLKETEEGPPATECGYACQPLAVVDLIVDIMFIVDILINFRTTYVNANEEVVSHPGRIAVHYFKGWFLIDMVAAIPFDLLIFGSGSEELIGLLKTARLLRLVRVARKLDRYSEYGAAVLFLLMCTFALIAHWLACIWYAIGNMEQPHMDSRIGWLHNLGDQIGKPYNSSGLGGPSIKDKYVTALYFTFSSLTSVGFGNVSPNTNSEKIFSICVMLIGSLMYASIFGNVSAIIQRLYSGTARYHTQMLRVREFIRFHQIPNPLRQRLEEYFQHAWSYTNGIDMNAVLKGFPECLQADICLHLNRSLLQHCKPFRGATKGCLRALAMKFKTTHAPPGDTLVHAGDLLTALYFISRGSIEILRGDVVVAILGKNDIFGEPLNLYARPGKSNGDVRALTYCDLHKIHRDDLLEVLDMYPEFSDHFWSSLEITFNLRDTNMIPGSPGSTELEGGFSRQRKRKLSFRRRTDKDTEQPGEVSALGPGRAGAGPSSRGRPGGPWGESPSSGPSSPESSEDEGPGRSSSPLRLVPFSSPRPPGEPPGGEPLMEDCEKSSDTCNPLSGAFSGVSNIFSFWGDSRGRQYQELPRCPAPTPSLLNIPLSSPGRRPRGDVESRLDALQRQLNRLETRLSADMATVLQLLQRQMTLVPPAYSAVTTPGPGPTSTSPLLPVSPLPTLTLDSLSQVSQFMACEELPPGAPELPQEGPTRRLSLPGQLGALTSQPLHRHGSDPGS

Compared with `Cc1cc(N2CCCC2)c(C)cc1C=O`, `O=C(Nc1ccc(N2CCCC2)cc1)c1ccc(Cl)cc1Cl` is higher in “hERG current change (%, negative = inhibition) at 1uM” value: -11.6% for the first, 13.3% for the second.

Going from `CC(=O)c1ccc(NC(=O)COC(=O)CCC(=O)c2cccs2)cc1` to `COc1ccc(S(=O)(=O)N(C)CC(=O)Nc2cccc(C(C)=O)c2)cc1Cl`, the “hERG current change (%, negative = inhibition) at 1uM” value falls from 13.7% to -1.17%.

Compared with `O=C(Cc1ccc(Br)cc1)NC1CCCc2ccccc21` (stereo not shown), `CSc1ccccc1NC(=O)CN(C)Cc1ccc(Br)cc1` is lower in “hERG current change (%, negative = inhibition) at 1uM” value: 11.7% for the first, 0.638% for the second.

Going from `CCc1ccccc1Nc1ccc(C(=O)O)cc1N` to `Cc1[nH]c2ccccc2c1/C=N/NC(=O)c1cccc(F)c1`, the “hERG current change (%, negative = inhibition) at 1uM” value falls from 15.9% to 11.3%.

Compared with `CCC1=Nc2cc(C(=O)N3CCC4(CC3)OCCO4)ccc2Sc2ccc(Br)cc21`, `O=C1CC2(CCN(C(=O)c3cccc(Br)c3)CC2)Oc2ccccc21` is lower in “hERG current change (%, negative = inhibition) at 1uM” value: 12.4% for the first, -56% for the second.

Compared with `COCCN1CCN(c2c3c(nc4cc(-c5cccc(F)c5)nn24)CCC3)CC1`, `Cc1ccccc1N1CCN(C2CCCN(C(=O)c3cc(CC(C)C)nn3C)C2)CC1` (stereo not shown) is higher in “hERG current change (%, negative = inhibition) at 1uM” value: -3.12% for the first, 5.95% for the second.

First: Cc1cccc(C)c1NC(=O)CN1C(=O)COc2ccccc21
Second: Cc1ccc(N2C(=O)N(CC(=O)Nc3c(C)cc(C)cc3Cl)C(=O)C2C)cc1 (stereo not shown)
The “hERG current change (%, negative = inhibition) at 1uM” value of the first is higher: 12.6% for the first, -8.12% for the second.

Compared with `Cc1nc2ccccn2c1C(=O)N/N=C/c1ccccc1`, `Cc1nnc(NC(=O)c2ccccc2Oc2ccccc2)s1` is higher in “hERG current change (%, negative = inhibition) at 1uM” value: 5.44% for the first, 9.33% for the second.

Going from `COc1cccc(Cn2c(N)c(C#N)c3nc4ccccc4nc32)c1OC` to `COCCn1c(-c2ccc(OC)cc2)cnc1SCC(=O)Nc1cccc2ccccc12`, the “hERG current change (%, negative = inhibition) at 1uM” value falls from 12% to -10.1%.

Going from `Cc1cc(Cl)c(C)c(S(=O)(=O)N2CCN(CC(=O)N3CCOCC3)CC2)c1Cl` to `Cc1ccc(S(=O)(=O)NCC(=O)N2CCOCC2)cc1`, the “hERG current change (%, negative = inhibition) at 1uM” value rises from -14.9% to 12.1%.

Going from `COc1cccc2cc(C(=O)Oc3ccc(NC(C)=O)cc3)c(=O)oc12` to `CC(=O)Nc1ccc(NC(=O)C(C)n2c3ccccc3c3nc(=O)cc(C)n32)cc1` (stereo not shown), the “hERG current change (%, negative = inhibition) at 1uM” value rises from -0.0939% to 0.598%.

Going from `CC(=O)Nc1ccc(SCC(=O)Nc2cc(C(C)(C)C)nn2-c2ccccc2)cc1` to `CN(C)S(=O)(=O)c1cccc(NC(=O)COc2ccc3ccccc3c2)c1`, the “hERG current change (%, negative = inhibition) at 1uM” value falls from 8.28% to 3.28%.

Going from `COc1cccc(NC(=O)CCS(=O)(=O)c2ccc3c(c2)oc(=O)n3C)c1` to `CCC(=O)N(Cc1ccc(S(N)(=O)=O)cc1)C1CC(=O)N(c2ccc(OC)cc2)C1=O` (stereo not shown), the “hERG current change (%, negative = inhibition) at 1uM” value falls from 20.9% to 6.33%.

Going from `C/C(=N\NC(=O)c1csc(C)c1C)c1ccco1` to `COC(=O)CC(NC(=O)c1ccco1)c1cccc2ccccc12` (stereo not shown), the “hERG current change (%, negative = inhibition) at 1uM” value falls from 10.2% to -5.37%.

First: O=C(c1cc2cccc([N+](=O)[O-])c2oc1=O)N1CCOCC1
Second: Cc1ccsc1CN(C)C(=O)C(NC(=O)c1cccc(S(=O)(=O)N2CCOCC2)c1)C(C)C (stereo not shown)
The “hERG current change (%, negative = inhibition) at 1uM” value of the first is higher: 12.2% for the first, -10.3% for the second.

Compared with `COc1ccc(CCn2c(C(C)C)nc3oc4ccccc4c(=O)c3c2=O)cc1`, `CCCN(c1ccccc1F)S(=O)(=O)c1cc(-c2cc(C)no2)ccc1OC` is higher in “hERG current change (%, negative = inhibition) at 1uM” value: -25.1% for the first, 15.2% for the second.

Going from `Cc1onc(-c2c(F)cccc2Cl)c1C(=O)Nc1sc2c(c1C(N)=O)CCC2` to `COC(=O)c1ccccc1NC(=O)c1sc(Cl)nc1C`, the “hERG current change (%, negative = inhibition) at 1uM” value rises from 1.54% to 5.06%.

Going from `CC(=O)N1CN(C2CCCC2)Cc2c1sc1c2CCCC1` to `NC(=O)Cn1c(=O)n(C2CCCCC2)c(=O)c2c3c(sc21)CCCCC3`, the “hERG current change (%, negative = inhibition) at 1uM” value falls from 10.7% to 10.3%.

First: Cc1cccc(N(CC(N)=O)C2SC(=O)NC2=O)c1 (stereo not shown)
Second: Cc1cc(NC(=O)C(C)C)ncc1NC(=O)c1cccc(F)c1
The “hERG current change (%, negative = inhibition) at 1uM” value of the first is lower: 1.4% for the first, 15.3% for the second.

First: COC(=O)c1[nH]c2ccc(Cl)cc2c1NC(=O)Oc1ccccc1
Second: COc1ccc(COC(=O)N/N=C(\C)CC(=O)NCc2ccc(Cl)cc2)cc1
The “hERG current change (%, negative = inhibition) at 1uM” value of the first is higher: 13.4% for the first, 10.8% for the second.

First: CCOC(=O)C1(CCCc2ccccc2)CCN(C(=O)COC)CC1
Second: CC(C)(C)CN1CCN(CCCc2ccccc2)C(CCO)C1 (stereo not shown)
The “hERG current change (%, negative = inhibition) at 1uM” value of the first is higher: 10.5% for the first, -5.87% for the second.

Going from `CSc1ccc(/C=C(\C(=O)O)c2ccc(S(=O)(=O)N3CCCC3)s2)cc1` to `O=C(N/C(=C\c1ccccc1)C(=O)N1CCCCCC1)c1ccccc1`, the “hERG current change (%, negative = inhibition) at 1uM” value rises from 0.93% to 21.1%.

First: CN(CC(=O)NCC(c1ccco1)N1CCCCC1)S(=O)(=O)c1ccc(Cl)cc1 (stereo not shown)
Second: Cc1sc2ncnc(NCC(c3ccco3)N3CCCC3)c2c1C (stereo not shown)
The “hERG current change (%, negative = inhibition) at 1uM” value of the first is higher: 6.87% for the first, -28.4% for the second.

Compared with `CC(C)C[C@H](NC(=O)N1CCn2c1nc1ccccc12)C(=O)NC1CC1`, `COC(=O)C1CCN(S(=O)(=O)Cc2ccccc2Cl)CC1` is higher in “hERG current change (%, negative = inhibition) at 1uM” value: 6.04% for the first, 20% for the second.

First: CC(C)CCN1CCN(Cc2ccc(Oc3ncccn3)cc2)CC1CCO (stereo not shown)
Second: Nn1c(Cc2ccccc2F)nnc1SCCOc1ccc(Cl)cc1
The “hERG current change (%, negative = inhibition) at 1uM” value of the first is higher: 3.78% for the first, -2.75% for the second.

Going from `CN(C)S(=O)(=O)c1ccc(S(=O)(=O)NCc2ccc3c(c2)OCO3)cc1` to `CC(=O)Nc1ccc(S(=O)(=O)NCc2cn3c(C)csc3n2)cc1`, the “hERG current change (%, negative = inhibition) at 1uM” value falls from 7.94% to 5.79%.

Compared with `FC(F)(F)c1ccc(Oc2ccc3ccccc3c2Br)nc1`, `Oc1ccc(Br)cc1CNc1cccc2cccnc12` is higher in “hERG current change (%, negative = inhibition) at 1uM” value: 8.16% for the first, 13.6% for the second.

First: CCOc1ccc(CCNC(=O)c2ccc(CNS(=O)(=O)c3ccccc3)cc2)cc1OCC
Second: COc1ccc(CCNC(=O)C(NC(=O)OCc2ccccc2)C(C)C)cc1OC (stereo not shown)
The “hERG current change (%, negative = inhibition) at 1uM” value of the first is higher: 7.92% for the first, 5.51% for the second.

Compared with `N=C1SC(c2ccccc2)C(=O)N1c1ncc(Cc2ccccc2Cl)s1` (stereo not shown), `O=C1CN(S(=O)(=O)c2ccccc2)CC(=O)N1CCc1ccccc1` is higher in “hERG current change (%, negative = inhibition) at 1uM” value: 3.19% for the first, 9.7% for the second.

Compared with `C=CCOc1ccc(/C=C/C(C)=N\O)cc1`, `COc1ccc2c(c1)c(C(=O)N/N=C/c1ccc(O)c(O)c1)c(C)n2C` is higher in “hERG current change (%, negative = inhibition) at 1uM” value: 4.21% for the first, 13.3% for the second.

Compared with `O=C(Cn1cc([N+](=O)[O-])cn1)NCc1ccccc1`, `O=C(/C=C/c1ccco1)NCC1OCCc2ccccc21` (stereo not shown) is lower in “hERG current change (%, negative = inhibition) at 1uM” value: 16.8% for the first, 15.9% for the second.

Going from `O=C(OC1CCOC1=O)C1CCN(S(=O)(=O)c2c(Cl)cccc2Cl)CC1` (stereo not shown) to `CC1CCN(S(=O)(=O)c2cn(CC(=O)Nc3ccc(C#N)cc3)cn2)CC1`, the “hERG current change (%, negative = inhibition) at 1uM” value falls from 11.5% to 8%.

First: COc1cccc(OCCCCN2CC(C)OC(C)C2)c1.O=C(O)C(=O)O (stereo not shown)
Second: COc1cc(/C(C)=N\NC(=O)CSc2nc3ccccc3n2C)ccc1O
The “hERG current change (%, negative = inhibition) at 1uM” value of the first is lower: 8.93% for the first, 12.2% for the second.

Compared with `CN1CCC(OC(=O)c2cccc(Br)c2)CC1.Cl`, `O=C(C1CCC1)N1CCN(c2cccc(C(F)(F)F)c2)CC1` is higher in “hERG current change (%, negative = inhibition) at 1uM” value: -13.3% for the first, 4.25% for the second.

First: O=C(NCc1ccc[n+](CCCCS(=O)(=O)[O-])c1)c1ccc(OC(F)F)cc1
Second: C/C(=N\NC(=O)CSc1nc2ccccc2[nH]1)c1ccncc1
The “hERG current change (%, negative = inhibition) at 1uM” value of the first is lower: -3.6% for the first, 9.29% for the second.

Compared with `O=C(COC(=O)C12CC3CC(CC(O)(C3)C1)C2)NC(=O)NCc1ccco1`, `O=CN(Cc1ccco1)C1(C(=O)NC2CCCCC2)CCCCC1` is higher in “hERG current change (%, negative = inhibition) at 1uM” value: 4.54% for the first, 5.42% for the second.

First: CC(C)CCSc1nc(N)c(C#N)cc1C#N
Second: CCCNC(=O)CSc1nc2[nH]ncc2c(=O)[nH]1
The “hERG current change (%, negative = inhibition) at 1uM” value of the first is higher: 1.91% for the first, -5.12% for the second.

Going from `Cc1cccc(Cn2ccc(-c3ccc(Cl)cc3)c(C#N)c2=O)c1` to `COc1ccc([C@H]2CC(=O)C=C(c3cccc(Cl)c3)C2)cc1OC`, the “hERG current change (%, negative = inhibition) at 1uM” value falls from 7.94% to -7.44%.

Going from `Cc1ccc([C@@H]2[C@@H]3C(=O)N(C)C(=O)[C@@H]3[C@]3(C)C(=O)N(Cc4ccccn4)CC(=O)N23)o1` to `COc1ccc(-c2noc(CN(C(=O)c3ccc4c(c3)OCO4)C(C)C)n2)cc1OC`, the “hERG current change (%, negative = inhibition) at 1uM” value falls from 13.9% to 4.02%.

First: O=C(COc1ccccc1Cl)NC(=S)Nc1ccccc1N1CCCC1
Second: Cn1cc(Br)c(C(=O)NNC(=O)Cc2ccc(Cl)cc2)n1
The “hERG current change (%, negative = inhibition) at 1uM” value of the first is higher: 15.4% for the first, 11% for the second.

First: Cc1nc2ncnn2c(C)c1Cc1c(Cl)cccc1Cl
Second: O=[N+]([O-])c1cc(-c2csc(NCCc3nc4cc(Cl)c(Cl)cc4n3CCCO)n2)ccc1Cl
The “hERG current change (%, negative = inhibition) at 1uM” value of the first is higher: 10.5% for the first, 9.13% for the second.

First: Cc1cccc(NS(=O)(=O)c2ccc3[nH]c(=O)cc(C(=O)OC(C)C(=O)Nc4ccc([N+](=O)[O-])cc4)c3c2)c1 (stereo not shown)
Second: CCN(CC)c1ccc(C=Nc2ccc(C)cc2C)c(O)c1
The “hERG current change (%, negative = inhibition) at 1uM” value of the first is lower: 7.95% for the first, 12.6% for the second.

Going from `O=C(CCC(=O)N(CC(=O)NC1CCCC1)C1CCCC1)Nc1ccccn1` to `O=[N+]([O-])/C=C1\NCCN1Cc1ccc(Cl)nc1` [24810910], the “hERG current change (%, negative = inhibition) at 1uM” value rises from -3.99% to 11%.

Compared with `COc1cc(C(=O)Nc2nnc(CC(C)(C)C)s2)c([N+](=O)[O-])cc1OC`, `N=c1c2c3c(sc2ncn1N)CCCC3` is lower in “hERG current change (%, negative = inhibition) at 1uM” value: 9.57% for the first, 2.4% for the second.
